# Source: PubChem BioAssay AID894 (National Center for Advancing Translational Sciences (NCATS), 2007)
# The whole screen tested about 150,000 compounds, of which about 6,500 (4.3%) were called active. The shares of active, inactive and inconclusive entries below differ from those in the screen. Calls follow the shape of the dose curve; as a rule, active = well fitted inhibition curve with a large enough effect (not every such curve was filed as active); inconclusive = small, poorly fitted or top-dose-only effect, or another doubt; inactive = no such curve, though single readings can be large or run the other way. Potencies of inconclusive entries are left out as doubtful fits.
# Target: 15-hydroxyprostaglandin dehydrogenase [NAD(+)] (Homo sapiens) (UniProt P15428)
# Assay: qHTS Assay for Inhibitors of HPGD (15-Hydroxyprostaglandin Dehydrogenase)
# Conditions: purified HPGD, NADH fluorescence kinetic, PGE2 substrate; activity change, negative = inhibition: stronger effect = lower value
# Summary of the method: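 NADH formation kinetics: reaction with 30 uM PGE2 and 1 mM NAD+ (final), 20 nM enzyme, Tris-HCl pH 8 with Tween 20, after 15 min compound preincubation at room temperature. Fluorescence change, last versus first of five reads.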
# % is scaled to controls: 0 for no effect and ±100 for the full control effect; potency is read from the fitted curve at half-maximal effect; tags tell the direction and shape of the fitted curve.
# UniProt P15428, sequence (P15428 whole entry, looked up): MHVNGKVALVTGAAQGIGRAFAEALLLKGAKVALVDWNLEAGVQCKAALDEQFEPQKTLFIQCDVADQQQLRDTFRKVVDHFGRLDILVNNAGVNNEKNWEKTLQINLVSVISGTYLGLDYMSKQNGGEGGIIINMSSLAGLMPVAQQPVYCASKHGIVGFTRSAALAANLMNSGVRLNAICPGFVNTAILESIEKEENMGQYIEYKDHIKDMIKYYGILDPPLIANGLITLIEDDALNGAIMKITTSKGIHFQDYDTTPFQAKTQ
Compound,Potency,"activity change, negative = inhibition"
C/C(=C\c1ccccc1)CN1CCC(C(=O)N2CCCCC2)CC1,active: 14.1 µM,–
Cn1c(=O)c2c(nc(SCC(=O)OCc3ccccc3)n2C)n(C)c1=O,–,inactive: 3.09%
O=C(CSc1nnnn1C1CCCC1)NCc1ccccc1,–,inactive: -15.6%
CC1=CC=CC2=NC(=O)CC(C)(C(=O)N(CC(=O)NC3CCCC3)c3ccccc3C)N12 (stereo unspecified),"inconclusive [inhibitor, partial curve]",–
O=c1c2ccccc2nc(-c2ccc(Cl)c(Cl)c2)n1O,–,inactive: -5.07%
O=S(=O)(Nc1nc2ccc(S(=O)(=O)N3CCCCC3)cc2s1)c1ccccc1,active: 8.91 µM,–
Cc1ccc(N=CC2=C(O)CC(c3cccc(Cl)c3)CC2=O)cc1 (stereo unspecified),–,inactive: 56.9%
O=C(NC(=S)Nc1ccc(N2CCCCC2)cc1)c1ccco1,active: 17.8 µM,–
CCCCn1c(SCC(=O)NC(C)CC)nc2ccc(N3CCOCC3)cc2c1=O (stereo unspecified),"inconclusive [inhibitor, partial curve]",–
O=C(CSCc1ccco1)c1cccs1,active: 15.8 µM,–
CCOC(=O)CCCSc1nc2sc3c(c2c(=O)[nH]1)CCC3,active: 3.55 µM,–
Cc1cc(C)c2nc(N3CCCC(C(=O)NCCCN4CCOCC4)C3)sc2c1 (stereo unspecified),–,inactive: -2.8%
Cc1ccccc1-c1nnc(-c2ccccc2)o1,"inconclusive [inhibitor, partial curve]",–
Cn1c(C(=O)NCc2ccccn2)cc2c(=O)n(C)c3ccccc3c21,"inconclusive [inhibitor, partial curve]",–
O=C(CNc1cccc(C(F)(F)F)c1)N/N=C/c1cn(-c2ccccc2)nc1-c1ccccc1,"inconclusive [inhibitor, partial curve]",–
CC(=O)N1C(=O)c2cccc3cccc(c23)C(=O)N1C(C)=O,"inconclusive [inhibitor, single point]",–
O=C(CSc1nnc(-c2cccs2)n1-c1ccccc1)N1CCOCC1,–,inactive: -3.17%
O=S(=O)(Nc1cccc(-c2cn3cccnc3n2)c1)c1ccccc1,"inconclusive [inhibitor, partial curve]",–
c1cncc(-c2nnc(-c3cccs3)o2)c1,"inconclusive [inhibitor, partial curve]",–
COc1nc(C)nc2c1sc1nc3c(cc12)COC(C)(C)C3,"inconclusive [inhibitor, single point]",–
CCN1CCN(C(=O)c2cnn3c(C(F)F)cc(-c4ccc(C)cc4)nc23)CC1,"inconclusive [inhibitor, partial curve]",–
COc1ccc(C(=O)Cn2nnc(-c3ccc(N4CCOCC4)cc3)n2)cc1OC,"inconclusive [inhibitor, single point]",–
CCOC(=O)c1c(C)[nH]c(C(=O)COC(=O)c2oc3ccc(OC)cc3c2C)c1C,"inconclusive [inhibitor, partial curve]",–

Compound,Potency,"activity change, negative = inhibition"
COc1ccc(Cl)cc1-c1n[nH]c(=S)o1,"inconclusive [inhibitor, partial curve]",–
O=C(CSc1ncccc1-c1nc2ccccc2[nH]1)N1CCCCC1,"inconclusive [inhibitor, partial curve]",–
COc1ccc(NCC(=O)N/N=C/c2c(C)nn(Cc3ccccc3)c2Cl)cc1,"inconclusive [inhibitor, partial curve]",–
NC(=O)c1ccc(NC(=O)COC(=O)c2c3c(nc4ccccc24)/C(=C\c2cccs2)CCC3)cc1,"inconclusive [inhibitor, partial curve]",–
O=[N+]([O-])c1ccc(NCCCNS(=O)(=O)c2ccc(Cl)cc2)c(Cl)c1,–,inactive: -13.6%
CC1(C)Oc2ccc3ccc(=O)oc3c2-c2cnoc21,"inconclusive [inhibitor, partial curve]",–
CSc1nnc(-c2ccccc2N=Cc2c(C)[nH]n(-c3ccc4ccccc4c3)c2=O)c(=O)[nH]1,active: 17.8 µM,–
CC(NC(=O)CCSc1nc(-c2ccc3c(c2)OCO3)cc(C(F)(F)F)n1)c1ccccc1 (stereo unspecified),"inconclusive [inhibitor, partial curve]",–
Cc1cc(=O)[nH]c(SC/C=C/c2ccccc2)n1,–,inactive: -16%
O=C(N/N=C/c1cn(-c2cccs2)nc1-c1ccccc1)c1ccccc1Br,"inconclusive [inhibitor, partial curve]",–
CSc1nc2sc3c(c2c2nnnn12)CCCC3,"inconclusive [inhibitor, partial curve]",–
COc1ccccc1C(=O)Nn1c(-c2cccs2)nc2ccccc2c1=O,"inconclusive [inhibitor, partial curve]",–
COc1ccccc1S(=O)(=O)Nc1ccc(-c2nnc3n2CCCCC3)cc1,active: 31.6 µM,–
O=C(Nc1ccc2c(c1)OCO2)C1CC(c2ccc(Cl)cc2)=NO1 (stereo unspecified),–,inactive: 0.419%
Cc1ccc(CNC(=O)Nc2ccccc2)cc1,"inconclusive [inhibitor, partial curve, poor fit]",–
O=C(COC(=O)C1CCC1)NCc1ccccc1Cl,active: 8.91 µM,–
COCC(=O)Nc1nnc(-c2cccs2)s1,"inconclusive [inhibitor, single point]",–
COc1ccc(CCNC(=O)CCNS(=O)(=O)c2cccc3nonc23)cc1OC,–,inactive: -9.9%
Cc1c(NC(=O)C(C)OC(=O)c2cc(Cl)nc(Cl)c2)c(=O)n(-c2ccccc2)n1C (stereo unspecified),–,inactive: -6.24%
Cc1[nH]c2ccc(C(=O)O)cc2c1C,"inconclusive [inhibitor, partial curve]",–
O=C1c2c(O)ccc([N+](=O)[O-])c2C(=O)c2c([N+](=O)[O-])ccc(O)c21,"inconclusive [inhibitor, partial curve]",–
N#Cc1ccccc1NC(=O)CSc1nnc(-c2ccc(F)cc2)n1-c1ccccc1,–,inactive: -12.9%
COc1cccc2[nH]c3c(N4CCCC(C)C4)ncnc3c12 (stereo unspecified),"inconclusive [inhibitor, partial curve, poor fit]",–
